Experimental data as given in PubChem BioAssay AID1240 (Sanford-Burnham Center for Chemical Genomics, 2008).
“And” between values parts separate entries of the source, which are not always exact repeats. Identical values can stand only once. The whole screen tested about 50,000 compounds, of which about 800 (1.6%) showed an effect of 50% or more. Some of the results follow.

molecular target: Bcl-2-like protein 10 (Homo sapiens) (UniProt Q9HD36); assay: TR3 peptide-Bcl-B binding displacers, biochemical primary FP assay, phenotype converters (AID 1240); settings: GST-Bcl-B / FITC-TR3 peptide fluorescence polarization; stronger effect = higher value; compound at 3.75 mg/L;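 further: 0% = Bcl-B with tracer peptide and DMSO and 100% = tracer peptide lacking Bcl-B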
Chain of UniProt Q9HD36 (Q9HD36 whole entry, looked up): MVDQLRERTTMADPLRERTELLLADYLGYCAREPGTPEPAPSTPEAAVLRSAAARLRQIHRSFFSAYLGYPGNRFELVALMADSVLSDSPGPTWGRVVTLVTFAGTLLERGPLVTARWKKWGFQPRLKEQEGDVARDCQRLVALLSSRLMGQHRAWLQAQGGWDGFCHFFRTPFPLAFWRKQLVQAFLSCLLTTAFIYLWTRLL

Row | SMILES | displacement
1 | CCc1nc(C)cn1S(=O)(=O)c1ccc(Cl)c([N+](=O)[O-])c1 | 16.9%
2 | O=C(CC(=O)c1ccccc1O)c1ccco1 | 1.2%
3 | O=C(CCc1ccccc1)Nc1nc(-c2cccc3ccccc23)cs1 | 16.4%
4 | CC(=O)Oc1ccccc1/C=C1\C=C(c2ccc(Br)cc2)OC1=O | 12%
5 | Cc1ccccc1NC(=O)C(=O)NNC(=O)c1ccc(Cl)cc1 | -5.9%
6 | O=C(CN(c1ccc(F)cc1)S(=O)(=O)c1ccccc1)NCCc1ccccc1 | 0%
7 | O=C1NC(=O)N(c2ccc(Cl)cc2)C(=O)/C1=C/c1cc(Cl)c(O)c(Cl)c1 | -0.3%
8 | CC1(C)CC(=O)c2sc(NC(=O)/C=C/c3ccco3)nc2C1 | -13.5%
9 | Cc1ccc(-c2csc(NC(=O)CCc3ccccc3)n2)cc1 | 9.7%
10 | COc1ccc(C2/C(=C(\O)c3ccccc3)C(=O)C(=O)N2CCCCCC(=O)O)c(OC)c1 (stereo unspecified) | -6.6%
11 | O=C1N=C(N2CCCCC2)S/C1=C\c1cccc(O)c1 | -5.3%
12 | CN(C)CCCNC(=O)C(F)(F)C(F)(F)C(F)(F)C(F)(F)C(F)(F)Cl | 17.4%
13 | CCOc1ccc(NCC(=O)N/N=C/c2c[nH]c3ccccc23)cc1 | 4.3%
14 | Cc1cccc(C)c1NC(=O)CCCOc1ccccc1 | 5%
15 | Cc1cc(C(=O)Nc2ccc(N(C)C)cc2)ccc1[N+](=O)[O-] | 11.2%
16 | COc1cccc(-c2nc(-c3ccc4c(c3)-c3ccccc3S4(=O)=O)c(-c3ccccc3)[nH]2)c1OC | 7.7%
17 | COc1ccccc1-n1cnc2nc[nH]c(=O)c21 | 5.1%
18 | CC1=NN(c2nc(-c3ccccc3)cc(-c3ccc(C)cc3)n2)C(=O)C1 | 3.2%
19 | O=C(N=Nc1c(O)[nH]c2ccc(Br)cc12)c1ccc(Cl)cc1Cl | 6.7%
20 | CS(=O)(=O)N(CC(=O)Nc1ccc(Cl)cc1)c1cccc(Cl)c1 | 3%
21 | CC1CCN(CCOCCOc2ccc(F)cc2)CC1 | 7.4%
22 | O=C(/C=C/c1ccco1)Nc1ccccc1[N+](=O)[O-] | 13.2%
23 | Cc1cc(OCC(=O)Nc2ccccc2C(N)=O)cc(C)c1Cl | -5.2%

Row | SMILES | displacement
24 | CCN(CC)CC(=O)Nc1c(-c2ccccc2)c2cc(Br)ccc2[nH]c1=O | -22%
25 | COC(=O)C1=C(C)NC(=O)/C1=C\c1ccc(F)cc1 | 3%
26 | COc1cc2c(C)[nH]c(=O)c(CC(=O)Nc3ccccc3)c2cc1OC | 41.5%
27 | C=CCOc1ccc(/C=C2/C(=O)N(c3ccccc3)N=C2C)cc1OCC | 4.7%
28 | O=C1CCC(=O)N1Cc1ccc(Cl)cc1 | -5%
29 | Cc1cccc(OCCCN2CCCC2)c1C | -2.2%
30 | Cc1ccc(-n2c(=O)c3c4c(sc3n3c(=S)[nH]nc23)CCCC4)cc1 | 5.9%
31 | O=C1CC(c2cccs2)c2ccc3ccccc3c2N1 (stereo unspecified) | 4.6%
32 | O=C1C(=O)N(c2nncs2)C(c2cccc(Br)c2)/C1=C(\O)c1ccc(F)cc1 (stereo unspecified) | 16.6%
33 | O=C(Nc1cccc(O)c1)/C(=C/c1cccc([N+](=O)[O-])c1)NC(=O)c1ccccc1 | 2.8%
34 | Cc1cc(C)c(COCc2c(C)cc(C)c(C=O)c2C)c(C)c1C=O | -10.3%
35 | COc1ccc(/C=C2\N=C(c3cccc(OC)c3)OC2=O)cc1 | -1.7%
36 | CCC(C)C(NC(=O)c1cc(C)oc1C)C(=O)O (stereo unspecified) | 12.5%
37 | CCOc1ccc(S(=O)(=O)N2CCC(C)CC2)c2ccccc12 | 3.7%
38 | O=C(Nc1ccc2c(c1)Cc1ccccc1-2)c1ccncc1 | -3.2%
39 | CC(=O)N(C)C1=C(Cl)C(=O)c2ccccc2C1=O | 16.2%
40 | COC(=O)c1ccccc1-c1ccc(/C=C2/SC(=S)N(Cc3ccccc3)C2=O)o1 | 21%
41 | Cc1ccc(OCC(=O)Nc2cccc(I)c2)cc1 | 8.2%
42 | COc1ccc(/C=C2\SC(=O)N(CCC(=O)N3CCOCC3)C2=O)cc1OC | -3.1%
43 | Cc1cccc(C(=O)NNC(=O)COc2cccc3ccccc23)c1O | -15.8%
44 | Cc1cc(C)c(C(=O)/C(=C/c2cccs2)c2ccccc2)c(=O)[nH]1 | 2.6%
45 | O=C(NNC(=O)C1CCCO1)c1ccc(F)cc1 (stereo unspecified) | -25.5%
46 | CCCN1C(=O)c2ccccc2NC1c1ccc(-c2ccccc2[N+](=O)[O-])o1 (stereo unspecified) | 2.1%

Row | SMILES | displacement
47 | CC1=NN(c2ccccc2)C(O)(C(F)(F)F)C1 (stereo unspecified) | 5.7%
48 | CCOC(=O)C(CCOc1ccc(Cl)c(C)c1)C(=O)OCC | -7.7%
49 | Cc1ccccc1OCC(=O)Nc1ccc(I)cc1Cl | 9.5%
50 | NS(=O)(=O)c1cccc(NC(=O)/C=C/c2ccccc2)c1 | 5.1%
51 | COc1ccc(C2CC(=O)C3=C(C2)Nc2ccccc2NC3c2ccc(O)c([N+](=O)[O-])c2)cc1OC (stereo unspecified) | 11.7%
52 | CN1C(C)(C)CC(OC(=O)c2ccccc2C(=O)OC2CC(C)(C)N(C)C(C)(C)C2)CC1(C)C | -0.4%
53 | COc1ccc(C(=O)N2CCN(Cc3ccc(SC)cc3)CC2)cc1OC | -0.9%
54 | CCCCOc1ccc(C(=O)NCCOc2ccccc2Cl)cc1 | 11.2%
55 | COc1ccc(OC)c(NC(=O)c2ccc(OCC(C)C)cc2)c1 | 12.1%
56 | O=C(N/N=C/c1c[nH]c2ccc(Br)cc12)c1ccccc1O | -0.2%
57 | Cc1onc(-c2ccccc2Cl)c1C(=O)Nc1ccc(Oc2ccccc2)cc1 | 3.4%
58 | CCOC(=O)c1c(NC(=O)COc2ccccc2)sc(C(=O)Nc2ccccc2F)c1C | -4.9%
59 | CCOc1ccc(-n2nc3ccc(NC(=O)c4cc(Cl)ccc4OC)cc3n2)cc1 | 7.5%
60 | Cc1cccc(/C(N)=N/OC(=O)c2ccccc2Br)c1 | 2.2%
61 | CCN(CC)C(=O)/C=C/c1ccc(OC)c(S(=O)(=O)N2CCCCC2)c1 | -4.9%
62 | O=C1NC(=O)N(c2ccccc2)C(=O)/C1=C/c1cccc(O)c1 | 2.8%
63 | C=CCNC(=S)Nc1ccc(NC(C)=O)cc1 | -5.8%
64 | Fc1ccc(NC(=S)Nc2ccc(Nc3ccccc3)cc2)cc1 | -14.9%
65 | O=C(c1cc2nc(-c3ccc(F)cc3)cc(C(F)(F)F)n2n1)N1CCOCC1 | 5.2%
66 | CC(=O)Nc1cc(I)cc(C(=O)O)c1 | -16.2%
67 | COc1ccc(OC(C)C(=O)Nc2ccc(Cl)cc2)cc1 (stereo unspecified) | 10.5%
68 | COc1cc(OC)c(OC)cc1CN1CCN(Cc2ccccn2)CC1 | -5.1%
69 | COCC(C)NCc1ccc2c(c1)OCO2 (stereo unspecified) | 2.4%

Row | SMILES | displacement
70 | Oc1ccccc1-c1cc(-c2ccccc2)nc(N/N=C/c2ccc(F)cc2)n1 | -6.1%
71 | CCCS(=O)(=O)c1c(S(=O)(=O)CCC)c2ccccn2c1C(=O)c1ccc([N+](=O)[O-])cc1 | 16.4%
72 | Cc1c(NS(=O)(=O)c2cc(Cl)ccc2Cl)c(=O)n(-c2ccccc2)n1C | 12.2%
73 | CC1(C)CC(NC(=O)C(=O)Nc2ccccc2)CC(C)(C)N1 | 10.9%
74 | CCOc1cc(-c2ccc(O)cc2)cc(=O)c2c(C)oc(C)c12 | 26.1%
75 | Nc1nnc(Cc2ccccc2F)s1 | -12.1%
76 | Cn1c(=O)c([N+](=O)[O-])c(NCc2ccccc2)c2ccccc21 | 6.6%
77 | COc1ccc(/C=C2\C=C(c3ccc(Cl)cc3)OC2=O)c(OC)c1 | 25.2%
78 | O=C(COc1ccc2ccccc2c1)Nc1ccc(O)c(-c2nc3ccccc3o2)c1 | 13.4%
79 | COc1ccc(-c2nc(=S)[nH][nH]2)cc1 | -22.6% and -2.1%
80 | COc1ccc(NC(=O)/C=C/c2ccccc2Cl)c(OC)c1 | 2.5%
81 | Cc1cc(Cl)ccc1OCC(=O)Nc1ccc([N+](=O)[O-])cc1 | -4.5%
82 | O=C(CCC1CCCC1)Nc1nc(-c2ccc(Cl)cc2)cs1 | 0.6%
83 | CCOC(=O)c1c(-c2ccc(F)cc2)csc1NC(=O)C1CCCCC1C(=O)O (stereo unspecified) | -12.9%
84 | CCN(CC)CCCOc1ccc(C)cc1Cl | 4.6%
85 | CC1CCN(c2cccc3c2C(=O)c2ccccc2C3=O)CC1 | 15.4%
86 | CC1=C(C(=O)Nc2ccc(C)cc2)C(c2cccc(Br)c2)NC(=S)N1 (stereo unspecified) | -3.3%
87 | Cc1cc(C=C2C(=O)c3ccccc3C2=O)c(C)n1-c1ccc(Cl)cc1 | 100%
88 | COc1cc2c(C(=O)O)c(C)n(C)c2c2ccccc12 | 9.6%
89 | O=C(c1ccc(F)cc1)N1CCc2ccccc21 | 12.4%
90 | CCOc1ccc(C(=O)Nc2ccc(OC)c(OC)c2)cc1 | -1.2%
91 | COc1ccc(NC(=O)CN(c2ccc(C(C)C)cc2)S(=O)(=O)c2ccccc2)cc1OC | 2.8%
92 | O=C(COc1ccc(Cl)cc1Br)NNC(=O)c1ccc(O)cc1 | -10.8%

Row | SMILES | displacement
93 | Cc1cc(C)c(NC(=O)c2cccc(N3C(=O)c4ccc(C(=O)Nc5c(C)cc(C)cc5C)cc4C3=O)c2)c(C)c1 | 10.9%
94 | O=C1NC(=S)S/C1=C\c1ccc(OS(=O)(=O)c2cccc([N+](=O)[O-])c2)cc1 | 34.4%
95 | Cc1ccc(NCC(O)COc2ccc(OCC(O)CNc3ccc(C)cc3C)cc2)c(C)c1 (stereo unspecified) | 15.4%
96 | COc1cc(/C=N/NC(=O)c2cccnc2)cc2c1OCO2 | 5.2%
97 | COC(=O)CN(c1ccccc1F)S(C)(=O)=O | 13.8%
98 | O=C(NNc1nc(-c2ccccc2)c2cc(Br)ccc2n1)c1ccccc1 | -12.9%
99 | CC(C)COc1ccc(C(=O)Nc2ccc(Cl)cc2Cl)cc1 | 11.6%
100 | O=C(COc1ccc(Br)cc1)Nc1ccc2oc(-c3cccnc3)nc2c1 | 12.9%
101 | Cc1c(Cl)cccc1NC1CS(=O)(=O)CC1O (stereo unspecified) | -0.9%
102 | CCCc1[nH]n(-c2nc3ccccc3s2)c(=O)c1C=NCCc1ccccc1 | -1%
103 | CC1=C(C(=O)Nc2ccc(C)cc2)C(c2ccc(F)cc2)NC(=O)N1 (stereo unspecified) | -2.2%
104 | O=C(O)c1cccc2c(=O)oc3ccccc3c12 | -6.8%
105 | COc1ccc(CSc2nnc(SCc3ccc(OC)c(F)c3)s2)cc1F | 13.5%
106 | CC(C)CC(=O)Nc1nnc(Cc2ccc(Cl)cc2Cl)s1 | 5.3%
107 | COc1ccc(/C=N/Nc2ccccc2)cc1O | 16%
108 | O=C(/C=C/c1ccc(-c2ccccc2[N+](=O)[O-])o1)Nc1ccc(-c2nc3ccccc3o2)cc1 | 1.9%
109 | COc1cc(OC)c(/C=C2\C(=O)NC(=O)N(c3cccc(C)c3)C2=O)cc1Br | 12.6%
110 | Cc1ccc(/C=C2\SC(N3CCN(C)CC3)=NC2=O)cc1 | -6%
111 | Cc1cc(C)c(NC(=O)COc2ccc(Br)c(C)c2)c(C)c1 | -7.9%
